Test results published in PubChem BioAssay AID651742 (Broad Institute, 2012).
Among all 5,600 compounds or so, about 780 (14%) were called active. Inconclusive results, whose numbers are uncertain, are shown with a selection of clear calls.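 The calls were made as follows: active = mean signal decrease across replicates above about 35% based on untreated-well scatter, with enough replicates individually passing (limit read from the data); inconclusive = no rule stated though some were filed; inactive = the rest.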

Assay: NIH3T3 cell viability loss – cherry-pick, single point, cytotoxicity control for T. cruzi proliferation inhibitor project, confirmation (AID 651742);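 also: 0% = median of neutral control wells and 100% = median of positive control wells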
Settings: NIH/3T3 viability, CellTiter-Glo ATP luminescence, 90 h; at 8.35 µM; stronger effect = higher value

SMILES	cytotoxicity (signal decrease)
CC(C)CC#Cc1ccc2c(c1)O[C@H](CN(C)Cc1ccncc1)[C@H](C)CN([C@H](C)CO)S2(=O)=O	inconclusive: 35.2%
COc1ccc(NC(=O)Nc2ccc3c(c2)C(=O)N([C@@H](C)CO)C[C@@H](C)[C@H](CN(C)Cc2ccc(C(F)(F)F)cc2)O3)cc1	inconclusive: 36%
C[C@@H]1CN([C@H](C)CO)C(=O)c2cc(NC(=O)Nc3cccc4ccccc34)ccc2O[C@@H](C)CCCCO[C@H]1CN(C)C(=O)C1CCCCC1	inactive: 15.4%
C[C@H]1CN([C@@H](C)CO)C(=O)c2cc(NC(=O)NC3CCCCC3)ccc2O[C@H]1CN(C)Cc1ccc2c(c1)OCO2	inconclusive: 37.7%
C[C@H]1CN([C@@H](C)CO)S(=O)(=O)c2ccc(C3=CCCC3)cc2O[C@H]1CN(C)Cc1ccccc1	inconclusive: 37.6%
OC[C@@H]1[C@H](c2ccc(C3=CCCC3)cc2)[C@@H]2CN(CCC(F)(F)F)CCCCN12	inactive: 21.2%
CCCC#Cc1ccc([C@@H]2[C@H](CO)N3CCCCN(C(=O)c4ccc5c(c4)OCO5)C[C@@H]23)cc1	inactive: 30.4%
C[C@@H]1CN([C@H](C)CO)S(=O)(=O)c2ccc(-c3cccc(C#N)c3)cc2O[C@@H]1CN(C)C(=O)c1ccc(F)cc1	inconclusive: 36.7%
N#C[C@@H]1[C@@H](c2ccc(C#CC3CC3)cc2)[C@H](CO)N1C(=O)Cc1ccccn1	inconclusive: 35.6%
C[C@@H]1CCCCO[C@@H](CN(C)Cc2ccc(C(F)(F)F)cc2)[C@H](C)CN([C@@H](C)CO)C(=O)c2cc(NS(=O)(=O)c3cccs3)ccc2O1	inconclusive: 37.6%
OC[C@@H]1[C@H](c2ccc(C#Cc3ccccc3F)cc2)[C@@H]2CN(CC3CCOCC3)CCCCN12	inconclusive: 37.3%
C[C@@H]1CN([C@H](C)CO)C(=O)c2cc(C#Cc3ccccc3F)cnc2O[C@H]1CN(C)S(=O)(=O)c1ccccc1	inconclusive: 34.1%
C[C@@H]1CN([C@H](C)CO)C(=O)c2cccc(NC(=O)Nc3ccc(C(F)(F)F)cc3)c2O[C@H]1CN(C)S(=O)(=O)c1ccc(F)cc1	inactive: 9.78%
CO[C@@H](CN(C)S(=O)(=O)c1cccc(Cl)c1)[C@@H](C)CN([C@@H](C)CO)S(=O)(=O)c1ccc(Cl)cc1	inconclusive: 44.1%
C[C@@H]1CN([C@H](C)CO)C(=O)Cc2cc(NC(=O)Nc3ccc(C(F)(F)F)cc3)ccc2O[C@@H]1CN(C)Cc1ccc(C(=O)Nc2ccccc2N)cc1	active: 55.4%
CO[C@H](CN(C)S(=O)(=O)c1ccc(Cl)cc1)[C@@H](C)CN(Cc1ccccc1Cl)[C@H](C)CO	inconclusive: 36.2%
Cc1ccc(S(=O)(=O)N(C)C[C@@H]2Oc3ncc(C#Cc4cccc(F)c4)cc3C(=O)N([C@H](C)CO)C[C@@H]2C)cc1	inconclusive: 36.2%
C[C@@H]1CCCCO[C@@H](CN(C)S(=O)(=O)c2cccs2)[C@@H](C)CN([C@H](C)CO)C(=O)c2cc(NC(=O)NC3CCCCC3)ccc2O1	inactive: 6%
COc1ccccc1CNC(=O)C[C@@H]1C[C@@H]2c3cc(NC(=O)NC4CCCC4)ccc3O[C@@H]2[C@@H](CO)O1	inactive: -20.9%
C[C@H](CO)N1C[C@H](C)[C@H](CN(C)Cc2cccnc2)Oc2cc(/C=C/c3ccccc3)ccc2S1(=O)=O	inconclusive: 35%

SMILES	cytotoxicity (signal decrease)
C[C@H]1CN([C@@H](C)CO)S(=O)(=O)c2ccc(Br)cc2O[C@@H]1CN(C)Cc1ccccc1	inconclusive: 39%
OC[C@H]1[C@H](c2ccc(C#Cc3ccccc3F)cc2)[C@@H]2CN(Cc3cncnc3)CCCCN12	inconclusive: 35.6%
C[C@@H]1CN([C@@H](C)CO)S(=O)(=O)c2ccc(C#Cc3ccccc3)cc2O[C@H]1CN(C)C(=O)Nc1ccc2c(c1)OCO2	inconclusive: 35.9%
C[C@H](CO)N1C[C@H](C)[C@H](CN(C)C(=O)C2CCCCC2)Oc2cc(-c3ccc(F)cc3)ccc2S1(=O)=O	inconclusive: 40.2%
OC[C@@H]1[C@H](c2ccc(/C=C/c3ccccc3)cc2)[C@@H]2CN(Cc3cccnc3)CCCCN12	active: 41.1%
C[C@H](CO)N1C[C@H](C)[C@@H](CN(C)Cc2cncnc2)Oc2cc(-c3ccncc3)ccc2S1(=O)=O	inactive: 23%
COc1ccc(S(=O)(=O)N(C)C[C@@H]2OCCCC[C@H](C)Oc3ccc(NC(=O)Nc4ccccc4)cc3C(=O)N([C@H](C)CO)C[C@@H]2C)cc1	inactive: 7.2%
CCc1cnc(N2[C@@H](C#N)[C@@H](c3ccc(C4=CCCCC4)cc3)[C@@H]2CO)s1	inconclusive: 34.4%
Cc1ccc(S(=O)(=O)Nc2ccc3c(c2)C(=O)N([C@@H](C)CO)C[C@H](C)[C@H](CN(C)S(=O)(=O)c2ccccc2)OCCCC[C@H](C)O3)cc1	inactive: 8.68%
CCCN(C)C[C@@H]1Oc2cc(C#Cc3ccc(F)cc3)ccc2S(=O)(=O)N([C@H](C)CO)C[C@H]1C	inconclusive: 35.3%
CCCC#Cc1ccc([C@H]2[C@@H](C#N)N(C(=O)C3CCCC3)[C@@H]2CO)cc1	inactive: -5.82%
C[C@H](CO)N1C[C@H](C)[C@@H](CN(C)Cc2ccc3c(c2)OCO3)Oc2cc(C#CCN(C)C)ccc2S1(=O)=O	inconclusive: 40.3%
C[C@@H]1CN([C@H](C)CO)C(=O)c2cc(C3=CCCC3)cnc2O[C@@H]1CN(C)C(=O)Nc1ccc(C(F)(F)F)cc1	inconclusive: 36.1%
N#C[C@@H]1[C@@H](c2ccc(C#Cc3ccccc3F)cc2)[C@@H](CO)N1C(=O)C1CCCCC1	inactive: -9.16%
C[C@@H]1CN([C@H](C)CO)C(=O)Cc2cc(NC(=O)Cc3cn(C)c4ccccc34)ccc2O[C@H]1CN(C)Cc1ccc(C(F)(F)F)cc1	inconclusive: 34.5%
OC[C@@H]1[C@H](c2ccc(C#CC3CC3)cc2)[C@@H]2CN(CCC(F)(F)F)CCCCN12	inconclusive: 34.3%
O=C(C[C@H]1C[C@H]2c3cc(NS(=O)(=O)c4ccc(F)cc4)ccc3O[C@H]2[C@H](CO)O1)NCc1ccc(-c2ccccc2)cc1	active: 66.3%
C[C@H](CO)N1C[C@H](C)[C@H](CN(C)S(=O)(=O)c2ccc(F)cc2)Oc2cc(C#Cc3ccncc3)ccc2S1(=O)=O	inconclusive: 34.1%
CC(=O)N1CCCCN2[C@H](CO)[C@@H](c3ccc(-c4ccc(C)cc4)cc3)[C@@H]2C1	active: 40.8%
C[C@@H]1CN([C@@H](C)CO)C(=O)Cc2cc(NC(=O)C3CC3)ccc2O[C@H]1CN(C)Cc1ccc(Cl)c(Cl)c1	active: 39.5%

SMILES	cytotoxicity (signal decrease)
OC[C@@H]1[C@H](c2ccc(-c3ccc(F)cc3)cc2)[C@H]2CN(Cc3ccncc3)CCCCN12	inconclusive: 39.8%
CCS(=O)(=O)N1CCCCN2[C@@H](CO)[C@@H](c3ccc(-c4ccccc4C)cc3)[C@@H]2C1	inconclusive: 34.6%
C[C@@H]1CN([C@H](C)CO)S(=O)(=O)c2ccc(-c3ccccc3)cc2O[C@H]1CN(C)Cc1cccnc1	active: 59.1%
COc1ccc(C#Cc2ccc3c(c2)O[C@H](CN(C)C(=O)NC2CCCCC2)[C@@H](C)CN([C@@H](C)CO)S3(=O)=O)cc1	inactive: 7.85%
C[C@@H]1CN([C@H](C)CO)S(=O)(=O)c2ccc(C3=CCCC3)cc2O[C@@H]1CN(C)Cc1ccccc1F	inactive: 4.09%
C[C@H]1CN([C@@H](C)CO)S(=O)(=O)c2ccc(C#Cc3ccncc3)cc2O[C@H]1CN(C)S(=O)(=O)c1ccc(F)cc1	inconclusive: 37.8%
O=C(NCc1ccccn1)[C@@H]1[C@@H](CO)[C@@H]2Cn3c(ccc(/C=C/c4ccccc4)c3=O)[C@H]1N2CC1CC1	inconclusive: 35.2%
C[C@@H]1CCCCO[C@H](CN(C)Cc2ccc3c(c2)OCO3)[C@H](C)CN([C@H](C)CO)C(=O)c2cc(NC(=O)Nc3ccc(C(F)(F)F)cc3)ccc2O1	inconclusive: 35.6%
N#C[C@@H]1[C@@H](c2ccc(C#Cc3cccc(F)c3)cc2)[C@H](CO)N1C(=O)C1CCCC1	inactive: 15.5%
COc1cccc(NC(=O)N(C)C[C@@H]2Oc3cc(C#Cc4ccc(F)cc4)ccc3S(=O)(=O)N([C@@H](C)CO)C[C@@H]2C)c1	active: 45.1%
C[C@@H]1CN([C@@H](C)CO)C(=O)c2cc(NC(=O)NC3CCCCC3)ccc2O[C@@H]1CN(C)Cc1ccc(Cl)c(Cl)c1	inactive: 28.2%
COc1ccccc1C#Cc1ccc([C@@H]2[C@H]3CN(C(=O)C4CC4)CCCCN3[C@H]2CO)cc1	inconclusive: 40.4%
COc1cccc(S(=O)(=O)N(C)C[C@@H]2Oc3cc(C#CCC(C)C)ccc3S(=O)(=O)N([C@@H](C)CO)C[C@H]2C)c1	active: 43.4%
CO[C@H](CN(C)C(=O)Nc1ccc(Cl)cc1)[C@H](C)CN(Cc1ccccc1Cl)[C@H](C)CO	inconclusive: 34.5%
C[C@H]1CN([C@@H](C)CO)C(=O)c2cc(C#Cc3ccccc3F)cnc2O[C@@H]1CN(C)C(=O)C1CCC1	inactive: 30.4%
COc1ccccc1-c1ccc([C@H]2[C@H](CO)N3CCCCN(C(=O)c4cccnc4)C[C@@H]23)cc1	inconclusive: 35.6%
C[C@H]1CN([C@@H](C)CO)S(=O)(=O)c2ccc(C#CC3CCCC3)cc2O[C@@H]1CN(C)C(=O)c1cccc(F)c1	inconclusive: 34.3%
CCCC#Cc1ccc2c(c1)O[C@@H](CN(C)Cc1cccnc1)[C@@H](C)CN([C@H](C)CO)S2(=O)=O	inconclusive: 40.2%
